Data taken from paper PMC3245299.
These are yes or no findings as the source states them, for the method shown. In cells and extracts the contact can be indirect. Some results given as binding are weak or reduced against the parent protein; the word gives no strength.

Amino acid sequences for entries named in this document (tags omitted). A change or cut given only in a name is not applied to a line headed by its entry. Chains listed by the source or under a name are the forms on record and can include a tag or linker.
I2PP2A (SET, Taf-1β), endogenous in HEK293T cells (Q01105-2, form named): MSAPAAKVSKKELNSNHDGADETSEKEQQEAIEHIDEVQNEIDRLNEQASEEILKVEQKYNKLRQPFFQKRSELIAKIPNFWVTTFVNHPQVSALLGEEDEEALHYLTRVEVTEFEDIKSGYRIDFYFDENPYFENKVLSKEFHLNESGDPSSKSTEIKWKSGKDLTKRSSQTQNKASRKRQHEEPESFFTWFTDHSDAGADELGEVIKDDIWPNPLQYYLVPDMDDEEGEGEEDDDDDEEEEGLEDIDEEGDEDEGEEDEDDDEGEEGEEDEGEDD
UniProt P06748: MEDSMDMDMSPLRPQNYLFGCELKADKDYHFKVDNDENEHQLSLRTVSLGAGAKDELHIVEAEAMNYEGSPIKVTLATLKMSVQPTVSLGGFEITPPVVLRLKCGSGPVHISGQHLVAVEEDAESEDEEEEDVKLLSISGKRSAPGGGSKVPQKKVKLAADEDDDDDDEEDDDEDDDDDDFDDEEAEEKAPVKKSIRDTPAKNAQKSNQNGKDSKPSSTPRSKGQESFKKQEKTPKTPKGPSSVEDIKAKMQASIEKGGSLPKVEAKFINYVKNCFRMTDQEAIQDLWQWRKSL

What was measured:
[1] = target: GST-HCC141 (GST fused to the HBc CTD, residues 141-183, WT), expressed in HEK293T (human hepatitis B virus (HBV)) (UniProt P03146); assay: pull-down; HEK293T transfected with GST-DCC or GST-HCC fusion constructs only; RNase A-treated lysate (50 mM Tris pH 8.0, 150 mM NaCl, 1 mM EDTA, 1% NP-40); GST pulldown on GSH affinity resin; endogenous B23 and I2PP2A detected by western blot (and Coomassie staining) (Fig. 5B, 8D)
[2] = target: GST-HCC141-EEE, expressed in HEK293T (human hepatitis B virus (HBV)) (UniProt P03146); assay: as above
[3] = target: GST-DCC196-228 (GST fused to the DHBc linker region, residues 196-228), expressed in HEK293T (duck hepatitis B virus (DHBV)) (UniProt P0C6J7); assay: as above
[4] = target: I2PP2A-Flag-HA (human I2PP2A with C-terminal Flag and HA tags) (human) (UniProt Q01105); assay: co-IP; [35S]methionine-labelled proteins translated in rabbit reticulocyte lysate, DNase I and RNase A treated, bound to 3X-Flag-B23 or I2PP2A-Flag-HA antibody resin prepared from HEK293T cells; washed in lysis buffer with 0.1% NP-40; autoradiography (Fig. 7); only the target purified
[5] = target: 3X-Flag-tagged human B23/nucleophosmin (p3X-Flag-CMV-14-NPM) (human) (UniProt P06748); assay: as above
[6] = target: I2PP2A-Flag-HA (human I2PP2A with C-terminal Flag and HA tags) (human) (UniProt Q01105); assay: co-IP; HEK293T cotransfected with GST-DCC fusion construct and 3X-Flag-B23 or I2PP2A-Flag-HA (1:1); RNase A-digested lysates; protein A/G resin prebound with anti-Flag (B23) or anti-Flag plus anti-HA (I2PP2A); 4 hours at 4°C; western blot for GST (Fig. 5A, 5C)

Row | Substance | binding [1] | binding [2] | binding [4] | binding [5] | also measured
1 | B23 (nucleophosmin, NPM1), endogenous in HEK293T cells (from UniProt P06748 1-294) | no binding | binds weakly | – | – | binding [3]: binds
2 | DHBc 1–228 (CTD-deletion mutant with the linker but without the phosphodomain), in vitro translated (from UniProt P0C6J7 1-228) (domain or fragment) | – | – | binds weakly | binds weakly | –
3 | GST-DCC196-228 (GST fused to the DHBc linker region, residues 196-228), expressed in HEK293T (from UniProt P0C6J7 196-228) (domain or fragment) | – | – | – | – | binding [6]: binds
4 | GST-DCC196-228 (linker region construct), in vitro translated in RRL (from UniProt P0C6J7 196-228) (domain or fragment) | – | – | binds weakly | binds weakly | –
5 | I2PP2A (SET, Taf-1β), endogenous in HEK293T cells (from UniProt Q01105-2 1-277) | no binding | no binding | – | – | –
